Patent US20240391902A1, “Crystalline Form of Compound” (Shenzhen Forward Pharmaceuticals Co., Limited, priority 2020, published 2024)
This continues a long series; more values of the same kind are listed elsewhere.

Test: Dynamic solubility test
Assay type: physicochemical
Settings: room temperature, feeding concentration 10 mg/mL
Procedure: Determination method: According to a feeding concentration of 10 mg/mL, about 50 mg of the sample were weighed and added to 5 mL of the corresponding medium, and the sample was dissolved by rotating at […] at room temperature.

## C=CC(=O)Nc1cc(Nc2ncnc(-c3cn(C)c4ccccc34)n2)c(OC)cc1N(C)CCN(C)C [Example 21]
FaSSIF, 0.5 h, listed as compound of formula (I)
  dynamic solubility: <1000 µg/mL
FaSSIF, 1 h, listed as compound of formula (I)
  dynamic solubility: <1000 µg/mL
FaSSIF, 2 h, listed as compound of formula (I)
  dynamic solubility: <1000 µg/mL
FaSSIF, 4 h, listed as compound of formula (I)
  dynamic solubility: <1000 µg/mL
FaSSIF, 24 h, listed as compound of formula (I)
  dynamic solubility: <1000 µg/mL
FeSSIF, 0.5 h, listed as compound of formula (I)
  dynamic solubility: <1000 µg/mL
FeSSIF, 1 h, listed as compound of formula (I)
  dynamic solubility: <1000 µg/mL
FeSSIF, 2 h, listed as compound of formula (I)
  dynamic solubility: <1000 µg/mL
FeSSIF, 4 h, listed as compound of formula (I)
  dynamic solubility: <1000 µg/mL
FeSSIF, 24 h, listed as compound of formula (I)
  dynamic solubility: <1000 µg/mL

## C=CC(=O)Nc1cc(Nc2ncnc(-c3cn(C)c4ccccc34)n2)c(OC)cc1N(C)CCN(C)C [Example 23]
FeSSIF, 0.5 h, listed as crystaline form III-A of hydrochloride salt
  dynamic solubility: >10000 µg/mL
FeSSIF, 1 h, listed as crystaline form III-A of hydrochloride salt
  dynamic solubility: >10000 µg/mL
FeSSIF, 2 h, listed as crystaline form III-A of hydrochloride salt
  dynamic solubility: >10000 µg/mL
FeSSIF, 4 h, listed as crystaline form III-A of hydrochloride salt
  dynamic solubility: >10000 µg/mL
FeSSIF, 24 h, listed as crystaline form III-A of hydrochloride salt
  dynamic solubility: >10000 µg/mL
water, 0.5 h, listed as crystaline form III-A of hydrochloride salt
  dynamic solubility: 8200 µg/mL
water, 1 h, listed as crystaline form III-A of hydrochloride salt
  dynamic solubility: 8800 µg/mL
water, 2 h, listed as crystaline form III-A of hydrochloride salt
  dynamic solubility: 9700 µg/mL
water, 4 h, listed as crystaline form III-A of hydrochloride salt
  dynamic solubility: 9000 µg/mL
water, 24 h, listed as crystaline form III-A of hydrochloride salt
  dynamic solubility: 9700 µg/mL

## C=CC(=O)Nc1cc(Nc2ncnc(-c3cn(C)c4ccccc34)n2)c(OC)cc1N(C)CCN(C)C [Example 24]
FaSSIF, 2 h, listed as crystaline form IV-C of maleate salt
  dynamic solubility: 7200 µg/mL
FaSSIF, 4 h, listed as crystaline form IV-C of maleate salt
  dynamic solubility: 7700 µg/mL
FaSSIF, 24 h, listed as crystaline form IV-C of maleate salt
  dynamic solubility: >9900 µg/mL
FeSSIF, 0.5 h, listed as crystaline form IV-C of maleate salt
  dynamic solubility: >10000 µg/mL
FeSSIF, 1 h, listed as crystaline form IV-C of maleate salt
  dynamic solubility: >10000 µg/mL
FeSSIF, 2 h, listed as crystaline form IV-C of maleate salt
  dynamic solubility: >10000 µg/mL
FeSSIF, 4 h, listed as crystaline form IV-C of maleate salt
  dynamic solubility: >10000 µg/mL
FeSSIF, 24 h, listed as crystaline form IV-C of maleate salt
  dynamic solubility: >10000 µg/mL
water, 0.5 h, listed as crystaline form IV-C of maleate salt
  dynamic solubility: 4000 µg/mL
water, 1 h, listed as crystaline form IV-C of maleate salt
  dynamic solubility: 4300 µg/mL
water, 2 h, listed as crystaline form IV-C of maleate salt
  dynamic solubility: 4400 µg/mL
water, 4 h, listed as crystaline form IV-C of maleate salt
  dynamic solubility: 4700 µg/mL
water, 24 h, listed as crystaline form IV-C of maleate salt
  dynamic solubility: 4400 µg/mL

## C=CC(=O)Nc1cc(Nc2ncnc(-c3cn(C)c4ccccc34)n2)c(OC)cc1N(C)CCN(C)C [Example 22]
FeSSIF, 0.5 h, listed as crystaline form II-A of mesylate salt
  dynamic solubility: 8100 µg/mL
FeSSIF, 1 h, listed as crystaline form II-A of mesylate salt
  dynamic solubility: >9100 µg/mL
FeSSIF, 2 h, listed as crystaline form II-A of mesylate salt
  dynamic solubility: >10000 µg/mL
FeSSIF, 4 h, listed as crystaline form II-A of mesylate salt
  dynamic solubility: >10000 µg/mL
FeSSIF, 24 h, listed as crystaline form II-A of mesylate salt
  dynamic solubility: >10000 µg/mL
water, 0.5 h, listed as crystaline form II-A of mesylate salt
  dynamic solubility: >9200 µg/mL
water, 1 h, listed as crystaline form II-A of mesylate salt
  dynamic solubility: >9200 µg/mL
water, 2 h, listed as crystaline form II-A of mesylate salt
  dynamic solubility: >9400 µg/mL
water, 4 h, listed as crystaline form II-A of mesylate salt
  dynamic solubility: >9800 µg/mL
water, 24 h, listed as crystaline form II-A of mesylate salt
  dynamic solubility: >9100 µg/mL
